Reference: article PMC11180146, “Human gut microbes express functionally distinct endoglycosidases to metabolize the same N-glycan substrate” (Nature Communications, 2024)

T1: BT1285i_(H126A) (Bacteroides thetaiotaomicron VPI-5482)
T1 construct: Parent is m1; source: E. coli BL21(DE3), purified (Ni-NTA, SUMO protease, second Ni-NTA, SEC)
T1 chain: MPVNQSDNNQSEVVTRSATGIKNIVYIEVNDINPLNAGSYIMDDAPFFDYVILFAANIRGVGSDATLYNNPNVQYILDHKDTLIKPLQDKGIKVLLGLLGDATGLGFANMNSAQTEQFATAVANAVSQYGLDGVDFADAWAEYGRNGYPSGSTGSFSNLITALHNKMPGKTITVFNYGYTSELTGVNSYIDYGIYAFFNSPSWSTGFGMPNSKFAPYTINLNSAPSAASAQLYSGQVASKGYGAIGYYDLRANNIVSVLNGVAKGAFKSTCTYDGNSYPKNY

B1: monoclonal IgG1 antibody (Rituximab)-HM, bearing Man8 and Man9 at Asn297 (antibody, V domains shown)
VH: QVQLQQPGAELVKPGASVKMSCKASGYTFTSYNMHWVKQTPGRGLEWIGAIYPGNGDTSYNQKFKGKATLTADKSSSTAYMQLSSLTSEDSAVYYCARSTYYGGDWYFNVWGAGTTVTVSA
VL: QIVLSQSPAILSASPGEKVTMTCRASSSVSYIHWFQQKPGSSPKPWIYATSNLASGVPVRFSGSGSGTSYSLTISRVEAEDAATYYCQQWTSNPPTFGGGTKLEIK
notes: variable domain of the heavy chain of Rituximab; constant region of the IgG1 heavy chain of Rituximab; light chain of Rituximab; IgG1; also called IgG-HM; IgG1-HM; source: Expi293 cells and/or HEK cells, transfected, with kifunensine; purified (protein A); copies: 2 + 2
B2: IgG1 (Rituximab) Man5/Man5 (antibody, V domains shown)
VH: B1 VH
VL: B1 VL
notes: variable domain of the heavy chain of Rituximab, as in m5; constant region of the IgG1 heavy chain of Rituximab; light chain of Rituximab, as the light chain of m5; IgG1; same chains as m5, other glycoform; also called IgG-Man5; IgG-Man5/Man5; source: IgG-Man9 (Expi293 and/or HEK cells, kifunensine, protein A) incubated with α(1-2)-mannosidase (Aspergillus saitoi); copies: 2 + 2

Columns and labels:
[1] = molecular target: RNAseB, glycosylated (HM N-glycan at N34, mainly Man5 and Man6) (beef (bovine), as said of the protein in general) (UniProt P61823); assay: SPR; glycosylated RNAseB (Man5/6) amine-coupled to a CM5 chip on flow cell 2 (150 RU), deglycosylated RNAseB on control flow cell 1; enzyme as analyte, 120 s injection, 600 s dissociation; HBS-EP running buffer; Biacore X100
BT1285i_(H126A) = molecular target: T1, BT1285i_(H126A); assay: SPR; IgG1 glycoforms captured on a Protein A sensor chip (flow cell 2, up to 400 RU, 15 nM IgG1); serial dilutions of the enzyme as analyte; HBS-EP running buffer (10 mM HEPES, 150 mM NaCl, 0.005 % Tween 20, 3 mM EDTA); Biacore X100; conditions: both partners purified

| Molecule | fold lower affinity than BT1285i [1] [fold] | fold lower affinity than BT1285i (BT1285i_(H126A)) [fold] |
| --- | --- | --- |
| BT1285i_(H126A) (enzyme) | 1000 | – |
| B1 | – | 1000 |
| B2 | – | 1000 |
